Experimental data as given in the supplement of paper PMC11417369.
The other results are listed elsewhere or left out.

system: PF3D7_0420300 AP2 domain 1 (GST-tagged); test: gcPBM binding intensity (ln(normalized median fluorescence intensity)); higher = stronger DNA binding
Summary of the method: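 Alexa488 anti-GST antibody, scanned at 488 nm, detected GST-tagged P. falciparum DNA-binding domains that had been expressed in E. coli and incubated for 1 h on an Agilent 4 × 180k array. The array carried primer-extended double-stranded 36-bp intergenic genomic probes and negative controls. Binding intensity is the highest Masliner-normalised natural-log median intensity across replicate spots of either orientation of each probe.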

In order of rising “gcPBM binding intensity (ln)” value:
1. TTTTAAAAAAAAAAAAAAAAAAAAAAAAAAAAAAAA [CACACA_negctrl_site1343]  8.39
2. TTATATTATGTTCAATCAAAAATTATTTTTAAAAAA [XGTACX_negctrl_site595]  8.66
3. TTTTTTGTTAAAAGAGTGCAAATTTTTAAAGATTTG [GTGCAC_site9502]  8.75
4. TAAATACTTGTATATAGTACAAGTTGTTTTTTTTAA [XGTACX_site5643]  8.84
5. GAAAATATAAAAAAAAGTACATTTTCTCTAAATATA [XGTACX_site2441]  8.89
6. TTTAAATATAATTGGAGTACTTATAATATATATATA [XGTACX_site7247]  8.9
7. TTTTCATTTGTGACAGTGCAAAATGTTATATTAAAA [GTGCAC_site9647]  8.93
8. ATTATTTGAAACTATTGTACATTTAAAAACATTTTT [XGTACX_site4896]  9
9. AATATATGGTTTCATGATATTAAATTCAAAATAATG [CACACA_negctrl_site318]  9.01
10. TTATAAAAATTTAGTTGTACATGTCAAATTATCAAT [XGTACX_site7229]  9.03
11. AAAAAGAATAAATAAATAAATAAATATATATATATA [GTGCAC_negctrl_site584]  9.04
12. TGCAATGGAGCATAAAGTACATATAATTGTATTTTT [XGTACX_site7349]  9.04
13. TATAAAATGATGATATGTACTTATGTAGTTTTTTTA [XGTACX_site8711]  9.07
14. CATATATATTTTATTTGTACGTATAAAAAAACAAAA [XGTACX_site4253]  9.09
15. TTTTTTGTACCAAAAAAAAAAAAAAGAAAAAAAAAC [CACACA_negctrl_site1416]  9.11
16. TATTTATTGTGACACTTATATTATTTTATGATTAAA [CACACA_negctrl_site525]  9.12
17. CAACACTTAGATTTTAAGTTCACTGGTTAATATATA [CACACA_negctrl_site707]  9.13
18. ATGTTATTAAAAAAGGGTACACATCTTTTATGTTAA [XGTACX_site812]  9.14
19. TAAGAATTGAAAAAATGTACACAATATAAAATTGAA [XGTACX_site698]  9.14
20. TTTTTGTTTGAACACTGTACGTATAAATATAAAAGT [XGTACX_site6476]  9.15
21. TAAGACAATAAATGCTGTACAATTGAATATCTTGGA [XGTACX_site636]  9.16
22. AGAATATGTTAAAAAAGTACATACTCTTTATATACG [XGTACX_site79]  9.16
23. TTGTGTTATCACACGAAGGGGATAAGACATAAATGT [TGCATGCA_negctrl_site368]  9.17
24. AGGGGAAATAAAATATAAATTATCATATATATATAT [XGTACX_negctrl_site366]  9.17
25. TTTGTAATAAATAAGAGTACAAGTATGGTTCCACTA [XGTACX_site2579]  9.19
26. ATTACACATATAGTAGTGCAATAACTCCAAAAAAAA  9.2
27. TATATATATTATATATGTACATATATTTTTTTTTTT [XGTACX_site127]  9.2
28. TTTTAAAATTATTAGGTGCATATTTATTCTATATTT  9.22
29. TTTCTATATCTATTTAATTAACTTTTTATACTGATT [GTGCAC_negctrl_site415]  9.23
30. TATTAATCATATAAATGTACGTATATATATTTTTCT [XGTACX_site1421]  9.24
31. TTTTTTTCTCACAATCGTACATAAATACATATATAT [XGTACX_site3150]  9.24
32. TGTATACATTCTGAATGTACGGAACACCTCATAACT [XGTACX_site7240]  9.25
33. TTTATTACTATGTAAACACACATGCAATATATGTTA [CACACA_site1114]  9.25
34. CGTATATGACAAAAGCGTACGCATCAGCAGAAAAAT [XGTACX_site6248]  9.26
35. AATGTGTTTTTTTTTTTTTTTTTTTTCAATCTCTAT [CACACA_negctrl_site794]  9.28
36. ATATATATATATATAACACACGTGTATATATATGTA [CACACA_site3644]  9.28
37. AAAAAAAAAAAATATATATATATATATATATATATA [CACACA_negctrl_site1606]  9.3
38. AGGTCTATATAATAAGTGCATTTTTTTTTTTTTTTT [GTGCAC_site9664]  9.3
39. TATAATATATTATAACGTACAAATATATATATAAAA [XGTACX_site6581]  9.31
40. CTATATAATATGAGCACACATAAGATTTGGTGTTAT [CACACA_site744]  9.32
41. TTAAAAAAATATAGAGCATGCTAAAAATAAAAAAAT [TGCATGCA_site794]  9.33
42. TTATGTAAATGCTTATGTACTTATTACAATATTTTT [XGTACX_site4057]  9.34
43. TGGAACCTTTAAAATACACACCCAAATCCTTTGAAA [CACACA_site7671]  9.36
44. AATATGTAATAGTGTACACATATATCTGTATTTATG [CACACA_site4252]  9.36
45. AAAAAGAAAAAAAAATGTACATAAAGTCTAATGATA [XGTACX_site4781]  9.37
46. TTTTTTTCTTTTGGGAGTACCAACATTTTCACATAT [XGTACX_site1371]  9.37
47. GCATCTCATTTGTGATGTACTATATTATCCGTTTTT [XGTACX_site7576]  9.41
48. CACATAAAAAAATAAACACACATATGTATTTATATA [CACACA_site5718]  9.41
49. TATATATATATATGGGGTACAAATGGTCAGTATTAT [XGTACX_site1223]  9.43
50. TATATGTTTGAATATACACACAACATATTTATATAT [CACACA_site7832]  9.45
51. AAATACATTAAAATGACATGCAGATATATATCAAAA [TGCATGCA_site477]  9.45
52. CATATCATTGATTATAGTACACATACCATTTTTTAT [XGTACX_site6572]  9.45
53. TGTTTTTTTATTTTCACACATAATCCAATTATACAT [CACACA_site6070]  9.45
54. AAAAAAAAATTATATACACACATATAAATATATATA [CACACA_site1197]  9.46
55. AAAAAAAAAAAAAAATACAAGCACATTTATATAAGC [GTGCAC_negctrl_site695]  9.46
56. AAAATCTAGGTATTTATACACACTAAAATAATATAC [CACACA_site623]  9.47
57. AGTAATATAATATAAGCACACGTGTATTTATTTAGG [CACACA_site7921]  9.47
58. TAATGTACATAAACCGCACACATATAAAAAAATAAA [CACACA_site2851]  9.47
59. AATAATACATCCTTAGTGCAGAAATAAAAATTAAGC [GTGCAC_site9955]  9.5
60. ATATGAAAAAGAACTTGTACTAAAGTGGCATATTAT [XGTACX_site8520]  9.51
61. TGAATAAAGATATATACACACATATAGGTATATATC [CACACA_site6870]  9.51
62. GTTATACTCATCAACACACACATACAACGTGGTGTA [CACACA_site4789]  9.51
63. GAAAAAAGAAAAAAAAGTACACACATGTATATTAAT [XGTACX_site5265]  9.52
64. CTATGCCCCATATAAACACACAAATAAAAAGAATAT [CACACA_site2681]  9.54
65. ATTGGACTATAAATAGGTACACATATATATATATAT [XGTACX_site7562]  9.59
66. CAATCATAGAAAAACAGTACGTGTAGCAAACATCCT [XGTACX_site4889]  9.59
67. TGCTTATATTTTTATACACACAAGATACTTTTTGTT [CACACA_site1535]  9.59
68. AAAAAAAAAAAATATGTACACACATATATAATACAT [CACACA_site8473]  9.59
69. TTTCAAATTTAATACACACACAAGTATATATTTATC [CACACA_site3947]  9.6
70. AATAAAAATAATATAGTGCATAATATAAGGAAAAAA  9.6
71. TATATATCAATATTTACACACATGCGCCCACATAAA [CACACA_site7185]  9.66
72. CCTATTTATTTATACACACACATATATAAATAAATA [CACACA_site7417]  9.68
73. AATACAGAGGAAAATACACACGTATATATATAAATA [CACACA_site9125]  9.69
74. TATATTTTTTAAACCACACACAATATAGAGTAGAAT [CACACA_site613]  9.69
75. AAAAAGGGTATTATTACACACACGTAAATATTAAGA [CACACA_site4233]  9.7
76. AAAACAAATAAGTAAACACACATATAAAATCTATAT [CACACA_site7262]  9.71
77. AAAAAAAATGATAATATACACACTTATGGGAGAGCG [CACACA_site2516]  9.72
78. AAAAAAAAAAAAAACACACACATATAAATATAAATA [CACACA_site6972]  9.74
79. ATCAACAAAACATACACACACATATATATATATATA [CACACA_site2989]  9.74
80. AGAAATAAGAAATATACACACATATAAATATAAATA [CACACA_site7342]  9.75
81. ATTTATATTACAAAAAGTACACACATAAATAAATAC [XGTACX_site1827]  9.77
82. ATCTAAATAAAGTTAACACACACATAATATATATAT [CACACA_site8055]  9.81
83. CAAATACAGAAACACACACACATATACATATATATA [CACACA_site3498]  9.97
84. ATATTATATAAATACACACACACATGCATGCACATA [CACACA_site4236]  10.1
85. AAAAAAAAAAGACACACACACACAAATACATACACA [CACACA_site6472]  10.1
86. TAAAAAAAAACATATACACACAAAAACGTACACATA [CACACA_site1354]  10.1
87. AATGTACACCCACCCACACACAAACAAATATATATA [CACACA_site5521]  10.2
88. TAGAATAATCCTTACACACACACACCCACGAATAAA [CACACA_site483]  10.2
89. TATATATAAAAACACACACACACACCCTATAATTAT [CACACA_site4063]  10.3
